# Laboratory results reported in patent US20260216133A1, “AEROSOL COMPRISING 5-METHOXY-N,N-DIMETHYLTRYPTAMINE” (GH Research Ireland Limited, priority 2020, published 2026).
# Test system: patients with treatment-resistant major depressive disorder (TRD)
# Assay: Clinical trial, single inhalation of 5-MeO-DMT aerosol
# [1] = single dose 12 mg, single inhalation, two patients
smiles,measurement,setting,value
"COc1ccc2[nH]cc(CCN(C)C)c2c1 [5-MeO-DMT, 5-methoxy-N,N-dimethyltryptamine]","Montgomery-Asberg Depression Rating Scale (MADRS) score, formal remission","both patients, 2 hours after 12 mg single inhalation",≤ 10
same,depressive symptoms (MADRS) at follow-up,"both patients, day 1 and day 7 follow-up visits",effect further deepening
same,systemic absorption from aerosol particles,"inhalation, evidenced by onset of psychedelic effects",rapidly systemically absorbed
same,duration of the psychedelic experience as judged by an external observer,"patient 1, 12 mg single inhalation",16 min
same,duration of the psychedelic experience as judged by an external observer,"patient 2, 12 mg single inhalation",40 min
same,"peak psychedelic experience, 30-item revised Mystical Experience Questionnaire (MEQ30)",[1],both patients achieving a peak psychedelic experience
same,tolerability of inhalation procedure,[1],"well tolerated with no inhalation-related adverse events, especially no coughing"
